Assay results reported in PubChem BioAssay AID1963576 (National Center for Advancing Translational Sciences (NCATS), 2024).
Out of some 46,000 compounds screened, about 60 (0.1%) were called active. Not shown: some 3% with an inconclusive outcome. The call rests on the fitted dose curve; in most records, active means well fitted inhibition curve with a large enough effect; inconclusive means small, poorly fitted or top-dose-only effect; inactive means no such curve, though single readings can be large or run the other way. This is one part of the list.

Assay: Primary qHTS assay for Inhibitors of ovarian cancer metastasis using an organotypic tumor microenvironment (TME) model. Further: nearly all actives have a fitted effect of over 65% in size.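 On activity change, negative = inhibition: plate controls were DMSO wells for no effect and tomatine positive control wells for full effect.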
Conditions: SKOV3ip1-GFP adhesion/invasion on 3D omental model, fluorescence; series mostly up to 45.8 µM; activity change, negative = inhibition: at the top concentration
In short: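 A 3D layer of primary human omental fibroblasts, mesothelial cells, fibronectin and collagen I, grown 48 hr, received SKOV3ip1-GFP cells in serum-free medium plus compounds at 0.36-46 umol/L. After 2 hr RT and 16 hr 37 C, fixed adherent GFP cells were counted; normalized to DMSO and tomatine.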

Compound | activity change, negative = inhibition | outcome
CCCCN(Cc1ccccc1)S(=O)(=O)c1cc(Br)cc2c1N(C(=O)C1CC1)CC2 | inactive: 6.46% | 
CCOC(=O)C1=C[C@@H](OC(CC)CC)[C@H](NC(C)=O)[C@@H](N)C1 | inactive: -14.4% | 
CCC12CN3CC(C)(CN(C1)C3c1ccccc1C)C2=O (stereo not given) | inactive: 1.14% | 
Cc1ccccc1-c1nc2cc(NC(=O)c3cccc(OCCC(C)C)c3)ccc2o1 | inactive: 1.04% | 
CCOc1ccc(-n2ccn3c(CC(C)CC(=O)O)nnc3c2=O)cc1 (stereo not given) |  | inactive
COc1ccc2c(c1)c1c(c(=O)n(-c3ccc(C)cc3)c(=O)n1CC(=O)N1CCCC1)n2C | inactive: -0.404% | 
CCOc1ccc(OCC)c(NC(=O)c2cc(CN3CCOCC3)on2)c1 | inactive: 0.177% | 
CCC(Cn1nnc2ccccc2c1=O)NC(=O)Nc1ccc(C)cc1 (stereo not given) | inactive: -10.1% | 
Cc1ccc(S(=O)(=O)c2cnc(SC(C)C(=O)Nc3ccccc3)[nH]c2=O)cc1 (stereo not given) |  | inactive
O=C(CSc1nnc(CNC(=O)c2ccccc2F)n1-c1ccccc1)Nc1ccccc1F | inactive: -3.03% | 
CCCNC(=O)CCn1nc(-c2ccccc2)c2ccccc2c1=O | inactive: 2.69% | 
O=C(CCc1nnc2n(Cc3ccccc3Cl)c(=O)c3ccccc3n12)Nc1ccc(F)cc1 | inactive: 0.0328% | 
CC(=O)C1=C(c2ccc(Cl)c(Cl)c2)N(C(C)=O)n2c(nnc2C2CCCCC2)S1 |  | inactive
O=C(Nc1ccccc1Cl)c1cc(S(=O)(=O)N2CCC3(CC2)OCCO3)ccc1F | inactive: 0.898% | 
O=C(NCCS(=O)(=O)N1CCN(c2ccccc2F)CC1)C(c1ccccc1)c1ccccc1 | inactive: 7.99% | 
COc1cc(C2C(=O)N(C3CCCCCC3)CC(=O)N2CCC2=CCCCC2)ccc1OC(C)C (stereo not given) | inactive: -5.78% | 
Cc1ccc(NC(=O)CCNS(=O)(=O)c2ccc(Br)s2)cc1 | inactive: 0.313% | 
CCOc1ccc(N(CC)S(=O)(=O)N2CCCC(C(=O)Nc3ccc(OC)c(OC)c3)C2)cc1 (stereo not given) | inactive: -8.86% | 
CCn1cc2nc(SCc3ccccc3Cl)n(CCc3ccccc3)c(=O)c2n1 |  | inactive
Cc1ccc(-c2nc(NC(=O)CSc3ncnc4sc5c(c34)CCC(C)C5)ns2)cc1 (stereo not given) |  | inactive

Compound | activity change, negative = inhibition | outcome
CCOc1ccc(-n2c(=O)c3sc4ccccc4c3n(Cc3cccc(C)c3)c2=O)cc1 | inactive: -9.62% | 
COc1ccc(C2C(=O)N(C3CCCCC3)CC(=O)N2CCC2=CCCCC2)cc1 (stereo not given) | inactive: -4.03% | 
O=C(NC1(C(F)(F)F)C(=O)Nc2c1c(=O)[nH]c(=O)n2-c1ccc(F)cc1)c1ccccc1 (stereo not given) | inactive: -7.53% | 
Cc1cccc(N2CCN(C(=O)CCc3c(C)nc4c(c3C)c(=O)n(C)c(=O)n4C)CC2)c1C | inactive: -10.5% | 
CCc1ccc(NS(=O)(=O)c2ccc3[nH]cc(C(=O)NCCc4cccc(C)c4)c(=O)c3c2)cc1 | inactive: -15.4% | 
COc1ccc(-n2cc(C(=O)OCc3ccc(F)c(F)c3)c3ccccc3c2=O)cc1 | inactive: -2.02% | 
Clc1ccc(-c2cn3ncsc3n2)cc1 | inactive: 3.23% | 
O=C(NCc1ccccc1)C(=O)NCC(c1ccc2c(c1)OCO2)N1CCOCC1 (stereo not given) |  | inactive
CCN1CCN(c2oc(/C=C/c3ccc(OC)c(OC)c3)nc2C#N)CC1 | inactive: -2.52% | 
COc1ccc2c(c1)sc1ncc(C(=O)NCc3ccc(Cl)cc3)c(=O)n12 | inactive: -2.96% | 
CCOc1ccc(CCNC(=O)Cn2ncn3c(cc4sc(C)cc43)c2=O)cc1OCC | inactive: -9.47% | 
CC1CCC(NC(=O)c2ccc3c(c2)N(Cc2ccccc2F)C(=O)c2ccccc2S3=O)CC1 (stereo not given) |  | inactive
O=c1c2cccnc2n(Cc2ccccc2F)c(=O)n1Cc1ccc(F)cc1 | inactive: -1.31% | 
CCCCN1C(=O)c2[nH]nc(-c3ccccc3O)c2C1c1cc(Br)c(O)c(OC)c1 (stereo not given) | inactive: -5.16% | 
Cc1ccc(CN2CCSc3ccc(C(=O)N4CCN(c5ccc(Cl)cc5)CC4)cc32)cc1 | inactive: 3.31% | 
COc1ccccc1NC(=O)c1cc(S(=O)(=O)NCCc2ccccc2)ccc1F | inactive: -1.93% | 
COc1cccc(CNC(=O)c2ccc3nc(N4CCCCC4)sc3c2)c1OC | inactive: -0.568% | 
COc1cccc(CNC(=O)C(NS(=O)(=O)c2cccs2)C(C)C)c1 (stereo not given) |  | inactive
CCCCc1nn2c(=O)cc(COC(=O)c3ccc(NC(=O)c4ccccc4Cl)cc3)nc2s1 |  | inactive
CCOCCCNC(=O)C(c1ccc(OC)cc1)N(Cc1ccc2c(c1)OCO2)C(=O)c1ccc(NC(C)=O)cc1 (stereo not given) | inactive: 4.71% | 

Compound | activity change, negative = inhibition | outcome
O=S(=O)(Nc1ccc2nc(-c3ccc(F)cc3)oc2c1)c1ccccc1 | inactive: -9.24% | 
COc1ccc(NC(=O)Cn2c3ncccc3c(=O)n2-c2ccc(C)c(C)c2)c(OC)c1 |  | inactive
Cc1ccc(NC(=O)c2cc(S(=O)(=O)N3CCCCC3)c[nH]2)cc1N(C)C | inactive: 8.4% | 
Cc1cc(C)cc(NC(=O)c2cc(S(=O)(=O)NCCC3=CCCCC3)ccc2F)c1 |  | inactive
CC(=O)Nc1cc(C(=O)NCc2ccccc2Cl)ccc1Sc1ccc(F)cc1 | inactive: 0.843% | 
Cc1ccc2[nH]c(=O)c3cc(C(=O)N(C)c4ccc(Br)cc4)sc3c2c1 |  | inactive
Cc1nnc(NC(=O)CSc2nc3c([nH]c4ccccc43)c(=O)n2-c2ccc(Cl)cc2)s1 |  | inactive
CCOc1ccc2nc(N3CCN(C(=O)c4ccc5c(c4)CCCC5)CC3)sc2c1 | inactive: -1.07% | 
CCc1ccc(NC(=O)C2CCN(c3nc(-c4ccc(OC)cc4)no3)CC2)cc1 | inactive: 0.94% | 
COc1ccc(CCNCc2c(C(=O)O)c(C)n(Cc3c(F)cccc3Cl)c2C)cc1OC | inactive: 0.182% | 
Cc1cc(OCC(=O)Nc2ccc(C(=O)OC3CCCCC3)cc2)cc(C)c1Cl | inactive: -20.3% | 
COc1ccc2c(c1)CC(C(=O)NCc1ccc(F)cc1)CO2 (stereo not given) | inactive: 19.3% | 
Cc1cccc(C(=O)Nc2ccc3oc(-c4cccc5c(Br)cccc45)nc3c2)c1 | inactive: -10.7% | 
Cc1c(CCC(=O)NCCc2ccccc2)c(=O)oc2cc(O)ccc12 | inactive: -1.88% | 
CCOc1ccc2c(c1)c(=O)c(C(=O)c1ccccc1)cn2Cc1ccccc1 | inactive: 5.64% | 
Cc1ccc(C(=O)Nc2c(C(=O)NC(C)(C)C)oc3ccccc23)cc1 | inactive: 47.9% | 
COc1ccc2c(c1)c1c(c(=O)n(-c3ccc(F)c(Cl)c3)c(=O)n1Cc1cccc(C)c1)n2C |  | inactive
Cc1ccc(-c2cc(-c3ccc4c(c3)NC(=O)CO4)nc3c2COc2ccccc2-3)cc1 |  | inactive
Cc1ccc2c(c1)C(=O)OC(C(=O)Nc1ncc(Cc3ccccc3Cl)s1)C2 (stereo not given) |  | inactive
Cc1cccc(N2C(=O)N(Cc3cc(=O)n4ccccc4n3)c3ccccc3S2(=O)=O)c1 |  | inactive
